According to PMC4336329 (PLoS ONE, 2015):
Hit rate of the full screen: of about 310,000 compounds, about 14,000 (4.5%) showed an effect of 50% or more. The effect is printed as a negative number. The list shows a part of the results.

Target: human ether-à-go-go-related gene (hERG) potassium channel (human, UniProt Q12809)
Assay: primary screen, population patch clamp on CHO cells stably expressing hERG
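Note: peak tail current of the secondary pulse compared with the same well before compound.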

human ether-à-go-go-related gene (hERG) potassium channel, sequence (Q12809 whole entry, looked up): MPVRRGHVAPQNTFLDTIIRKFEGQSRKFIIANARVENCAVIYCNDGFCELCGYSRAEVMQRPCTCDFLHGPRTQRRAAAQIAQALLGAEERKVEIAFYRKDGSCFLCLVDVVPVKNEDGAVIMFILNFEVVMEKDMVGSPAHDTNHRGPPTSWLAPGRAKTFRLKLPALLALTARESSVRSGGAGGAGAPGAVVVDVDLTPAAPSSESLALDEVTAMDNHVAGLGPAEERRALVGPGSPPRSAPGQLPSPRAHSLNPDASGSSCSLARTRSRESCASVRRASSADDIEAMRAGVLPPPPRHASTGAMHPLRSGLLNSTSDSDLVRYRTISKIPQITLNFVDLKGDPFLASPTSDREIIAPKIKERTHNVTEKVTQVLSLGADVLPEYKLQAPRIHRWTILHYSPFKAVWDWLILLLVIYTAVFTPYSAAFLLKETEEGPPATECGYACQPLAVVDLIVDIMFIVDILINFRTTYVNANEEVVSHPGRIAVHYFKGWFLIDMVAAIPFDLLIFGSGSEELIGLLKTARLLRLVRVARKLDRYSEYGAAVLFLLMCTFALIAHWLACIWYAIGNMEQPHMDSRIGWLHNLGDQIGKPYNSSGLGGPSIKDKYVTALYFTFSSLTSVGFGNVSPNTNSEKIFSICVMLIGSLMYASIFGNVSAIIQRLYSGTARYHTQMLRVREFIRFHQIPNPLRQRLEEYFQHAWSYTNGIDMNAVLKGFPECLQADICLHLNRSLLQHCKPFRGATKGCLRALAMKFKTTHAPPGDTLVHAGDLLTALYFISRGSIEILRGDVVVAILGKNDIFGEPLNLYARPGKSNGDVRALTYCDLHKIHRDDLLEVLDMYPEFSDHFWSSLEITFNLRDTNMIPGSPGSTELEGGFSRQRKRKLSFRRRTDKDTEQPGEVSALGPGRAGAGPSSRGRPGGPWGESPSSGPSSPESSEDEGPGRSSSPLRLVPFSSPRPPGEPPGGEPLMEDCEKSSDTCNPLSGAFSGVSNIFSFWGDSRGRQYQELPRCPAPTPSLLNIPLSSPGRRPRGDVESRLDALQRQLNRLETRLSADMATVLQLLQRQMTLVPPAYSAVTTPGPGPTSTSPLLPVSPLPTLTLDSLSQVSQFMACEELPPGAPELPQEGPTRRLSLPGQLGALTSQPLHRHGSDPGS

SMILES	hERG current change (%, negative = inhibition) at 10uM [%]
Cc1onc(-c2c(Cl)cccc2Cl)c1NC(=O)N(C)N	-0.387
CCC1Oc2ccccc2N(CC(=O)NCc2ccco2)C1=O (centres unmarked)	13
Cc1ccc(C(=O)OCn2ncc(Cl)c(Cl)c2=O)cc1	-7.78
CCOC(=O)N1CCN(C(=O)c2ccccc2NC(=O)c2ccc(C(C)(C)C)cc2)CC1	-10.1
CC(C)Cn1c(-c2ccc(Cl)cc2)cnc1SCC(=O)N1CCOCC1	-19.6
Cc1cccc(NC(=S)NC23CN4CN(CN(C4)C2)C3)c1	3.61
CCn1cc(Br)c(C(=O)NC(C)c2ccccc2)n1 (centres unmarked)	-1.15
COC(=O)N1[C@H](C)C=C[C@]1(Cc1ccccc1)C(=O)NCCCNc1ncc(C(F)(F)F)cc1Cl	-10.5
CCN(Cc1ccccc1)C(=O)CC(=O)N(CC)Cc1ccccc1	9.05
Cc1ccc(CNc2oc(-c3cccs3)nc2C#N)cc1	0.132
Cn1cc(CCC(=O)N2CCCC(N3CCN(c4ccccc4F)CC3)C2)cn1 (centres unmarked)	-8.85
CCOc1ccc(CCNC(=O)CSC(=S)N2CCCC2)cc1OCC	4.3
Cc1ccc(C)c(NC(=O)c2ccc3nccnc3c2)c1	2.6
COc1ccc(C2N(c3cc(C)on3)C(=O)C3CCCN32)cc1OC (centres unmarked)	7.98
Cn1c(=O)c2c(O)c(C=NCc3ccccc3)c(=O)n(C)c2n(C)c1=O	6.84
CCC(=O)N[C@@H]1CC(C(C)(C)NC(=O)CC)CC=C1C (some centres unmarked)	15.4
CC1CCc2c(sc(NC(=S)NC(=O)c3ccccc3)c2C#N)C1 (centres unmarked)	7.01
CC(=O)c1ccc(NC(=O)COC(=O)c2ccccc2Sc2ccccc2C#N)cc1	18
CCCCCCCc1nc2sc3c(c2c(=O)n1N)CC(C)(C)OC3	12.2

SMILES	hERG current change (%, negative = inhibition) at 10uM [%]
COC(=O)Cn1c(=NC(=O)c2ccc(Cl)s2)sc2cc(F)ccc21	20
CCOc1cc(N2CCOCC2)c(OCC)cc1NC1=NCCCCC1.Cl	11.3
CSc1ccc(CN2CCN(C(=O)Cc3ccccc3)CC2)cc1	-12.1
O=S(=O)(c1ccccc1)N1CCN(Cc2ccccc2C(F)(F)F)CC1	-2.81
Cc1ccc(-c2nc3ncccc3o2)cc1NC(=O)COc1ccccc1	4.88
COC(=O)c1c(NC(=O)c2ccccc2C(=O)O)sc2c1CCC2	11.1
O=C1C(Cc2ccccc2O)NC(=S)N1c1ccccc1 (centres unmarked)	-2
CC(Nc1nc(N2CCCCC2)nc2ccccc12)c1ccccc1 (centres unmarked)	-63.6
CCO.CCOC(=O)C1=C(C)Nc2sc(C(=O)c3ccc(C)cc3)c(N)c2C1c1ccc(C(=O)OC)cc1 (centres unmarked)	21.9
Cc1ccc(C(C)C)c(OCC(=O)NNC(=O)C(C(C)C)N2C(=O)c3ccccc3C2=O)c1 (centres unmarked)	3.3
Cc1cccc(NS(=O)(=O)c2cccc(C(=O)NCCCN3CCOCC3)c2)c1	-10.8
Cc1ccc(C)c(S(=O)(=O)N2CCN(C(=O)c3cc(S(=O)(=O)NCc4ccccc4)ccc3C)CC2)c1	1.79
Cc1nc(C(F)(F)F)ccc1C(=O)Nc1ccccc1F	11.7
C[C@]12C[C@H](O)[C@@H]3c4ccc(O)cc4CCC3[C@@H]1CCC2=O (some centres unmarked)	9.39
CC[N+](C)(CC)CCC[n+]1c(-c2ccccc2)c2cc(N)ccc2c2ccc(N)cc21.[I-]	7.78
COc1ccc(CNc2nc3c(c(=O)[nH]c(=O)n3C)n2CCCc2ccccc2)cc1	11.8
O=C(CSc1ccccc1)N1CCN(S(=O)(=O)c2cccs2)CC1	-11
COc1cc2c(cc1OC)C(c1cccc(Br)c1)NC(=O)C2 (centres unmarked)	14
Cc1cc(C)nc(Nc2ccccc2Cl)n1.Cl	-0.243

SMILES	hERG current change (%, negative = inhibition) at 10uM [%]
O=C(NCc1ccco1)C1CC(c2ccc(C(F)(F)F)cc2)=NO1 (centres unmarked)	7.87
Cc1cccc(S(=O)(=O)Nc2nc3ccccc3nc2Nc2ccc3c(c2)OCO3)c1	4.97
CC1(C)C2CC[C@]3(C)C(CC=C4[C@@H]5C[C@](C)(CO)CC[C@]5(C(=O)O)CC[C@]43C)[C@@]2(C)CC[C@@H]1O (some centres unmarked)	7.74
CCN(Cc1ccccc1)C(=O)CCS(=O)(=O)c1ccc2c(c1)NC(=O)CO2	-12.9
CC(=O)Cc1nsc(NC(=O)c2ccc(COc3cccc(C)c3)o2)n1	7.47
Cc1nc(Sc2ccccc2)c(C#N)c(C)c1[N+](=O)[O-]	8.6
Cc1nnnn1/C(=C\c1ccccc1)C(=O)OCC(=O)N1CC2(C)CC1CC(C)(C)C2 (centres unmarked)	-11.1
C=CCSc1nnc(-c2cc(Br)ccc2N)c(=O)[nH]1	17.4
O=C(CN(C(=O)c1csnn1)c1ccc(Cl)cc1)NCCc1ccccc1	-5.16
CSc1ccccc1NC(=O)COc1ccccc1Cl	-1.2
O=C(Oc1ccccc1-c1nnco1)c1ccccc1	0.787
O=C1CSC(=S)N1/N=C/c1cc(Br)ccc1O	20.6
COc1cc(/C=N/Nc2nc(C)cc(=O)[nH]2)cc(OC)c1O	22
O=C(COc1coc(CN2CCN(c3ccccc3)CC2)cc1=O)Nc1ccccc1	7.23
O=C(Nc1ccc2oc(=O)ccc2c1)c1ccc(-c2ccccc2[N+](=O)[O-])o1	9.83
COc1ccc(OC)c(NC(=O)[C@H]2CC=CC[C@H]2C(=O)O)c1	4.31
CCc1ccc(NC(=O)Cn2c(=O)c3cccn3c3ccccc32)cc1	25
CCOC(=O)Cn1c(=O)c2c(nc3n2CCCN3CCc2ccccc2)n(C)c1=O	-30.9
